Legend:
[1] = biological target: recombinant 3C or 3CL of NV (Norovirus, UniProt Q83883); test: FRET protease assay, NV 3CL (Example 2)
[2] = biological target: T1, recombinant 3C or 3CL of HAV (Human hepatitis A virus genotype IB, UniProt P08617)
T1 construct: His6 (N); made in house

[3] = biological target: recombinant 3C or 3CL of HRV (Human rhinovirus 14, UniProt P03303); test: FRET protease assay, HRV 3C (Example 2)
[4] = biological target: recombinant 3C or 3CL of Polio V (Poliovirus type 1, UniProt P03300)
[5] = biological target: recombinant 3C or 3CL of FMDV (Foot-and-mouth disease virus serotype O, UniProt P03305)
[6] = biological target: recombinant 3C or 3CL of TGEV (Porcine transmissible gastroenteritis coronavirus, UniProt P0C6Y5); test: FRET protease assay, TGEV 3CL (Example 2)
[7] = biological target: recombinant 3C or 3CL of SARS-Co (Severe acute respiratory syndrome coronavirus, UniProt P0C6X7)
norovirus 3CLpro = norovirus 3CLpro (Norovirus, UniProt Q83883); test: In vitro inhibition of norovirus 3CLpro (Example 4)

Structure (SMILES)	Inhibition [IC50 (μM)] against recombinant 3C or 3CL: Calicivirus, NV [1]	Inhibition [IC50 (μM)] against recombinant 3C or 3CL: Picornavirus, HAV [2]	Inhibition [IC50 (μM)] against recombinant 3C or 3CL: Picornavirus, HRV [3]	Inhibition [IC50 (μM)] against recombinant 3C or 3CL: Picornavirus, Polio V [4]	Inhibition [IC50 (μM)] against recombinant 3C or 3CL: Picornavirus, FMDV [5]	Inhibition [IC50 (μM)] against recombinant 3C or 3CL: Coronavirus, TGEV [6]	in vitro inhibition of norovirus 3CLpro (in words) (norovirus 3CLpro)	other results
CC(C)C[C@H](NC(=O)OCc1ccccc1)C(=O)N[C@H](C=O)C[C@@H]1CCNC1=O [GC373]	2.7 µM	>100 µM	0.3 µM	3.6 µM	0.4 µM	1.7 µM	–	Inhibition [IC50 (μM)] against recombinant 3C or 3CL: Coronavirus, SARS-Co [7]: 45 µM
CC(C)C[C@H](NC(=O)OCc1ccccc1)C(=O)N[C@@H](CC1CCNC1=O)C(=O)C(=O)NC(C)C (stereo partly shown) [GC375]	5.5 µM	36.5 µM	0.2 µM	2.8 µM	0.8 µM	2.8 µM	–	Inhibition [IC50 (μM)] against recombinant 3C or 3CL: Coronavirus, SARS-Co [7]: 5.1 µM
CC(C)C[C@H](NC(=O)OCc1ccccc1)C(=O)N[C@@H](C[C@@H]1CCNC1=O)C(O)S(=O)(=O)[O-].[Na+] (stereo partly shown) [GC376]	1.3 µM	>100 µM	0.4 µM	1.5 µM	0.6 µM	0.4 µM	–	–
CC(C)C[C@H](NC(=O)OCc1ccccc1)C(=O)N[C@@H](CC1CCNC1=O)C(O)C(=O)NC(C)C (stereo partly shown) [Inhibitor 5a]	–	–	–	–	–	–	weak in vitro inhibitory activity	–
CC(C)NC(=O)C(O)[C@H](CC1CCNC1=O)NC(=O)[C@H](Cc1ccccc1)NC(=O)OCc1ccccc1 (stereo partly shown) [Inhibitor 5h]	–	–	–	–	–	–	weak in vitro inhibitory activity	–
CC(C)NC(=O)C(=O)[C@H](CC1CCNC1=O)NC(=O)[C@H](Cc1ccccc1)NC(=O)OCc1ccccc1 (stereo partly shown) [Inhibitor 6h]	–	–	–	–	–	–	–	decrease in potency on replacement of P2 Leu with Phe (compare 6a and 6h) (norovirus 3CLpro; 6h relative to 6a): 4 fold
CC(C)C[C@H](NC(=O)OCc1ccccc1)C(=O)N[C@@H](CC1CCNC1=O)C(O)c1nccs1 (stereo partly shown) [Inhibitor 7b]	–	–	–	–	–	–	weak in vitro inhibitory activity	–
CC(C)C[C@H](NC(=O)OCc1ccccc1)C(=O)N[C@@H](CC1CCNC1=O)C(=O)c1ncco1 (stereo partly shown) [Inhibitor 8a]	–	–	–	–	–	–	–	potency against norovirus 3CLpro, oxazole derivative relative to the corresponding thiazole compound (norovirus 3CLpro; 8a relative to 8b): about 4 fold
